# This is one part of the list.
# How the values were obtained:
# Assay in all cases: glycan array binding signal (z-score within array); higher = stronger binding
# Details in all cases: glycan notation: IUPAC condensed, linker removed
# [1] = biological target: Gal(b1-4)GlcNAc(b1-2)Man(a1-6)[Man(a1-3)]Man(b1-4)GlcNAc(b1-4)GlcNAc
# Outline: (§1)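 From the Consortium for Functional Glycomics database, 3228 arrays were curated, keeping only those whose protein sequence was available. Binding is given as a within-array Z-score averaged across arrays sharing a protein sequence and across linkers. Negative Z-scores can be read as non-binding.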
# [2] = biological target: Gal(b1-4)GlcNAc(b1-2)[Gal(b1-4)GlcNAc(b1-4)]Man(a1-3)[Gal(b1-4)GlcNAc(b1-2)Man(a1-6)]Man(b1-4)GlcNAc(b1-4)GlcNAc
# Outline: as §1
# [3] = biological target: Gal(b1-4)GlcNAc(b1-2)[Gal(b1-4)GlcNAc(b1-4)]Man(a1-3)[Gal(b1-4)GlcNAc(b1-2)[Gal(b1-4)GlcNAc(b1-6)]Man(a1-6)]Man(b1-4)GlcNAc(b1-4)GlcNAc
# Outline: as §1
# [4] = biological target: Gal(b1-4)GlcNAc(b1-2)[Gal(b1-4)GlcNAc(b1-4)]Man(a1-3)[GlcNAc(b1-4)][Gal(b1-4)GlcNAc(b1-2)Man(a1-6)]Man(b1-4)GlcNAc(b1-4)GlcNAc
# Outline: as §1
# [5] = biological target: Gal(b1-4)GlcNAc(b1-2)[Gal(b1-4)GlcNAc(b1-4)]Man(a1-3)[GlcNAc(b1-4)][Gal(b1-4)GlcNAc(b1-2)[Gal(b1-4)GlcNAc(b1-6)]Man(a1-6)]Man(b1-4)GlcNAc(b1-4)GlcNAc
# Outline: as §1
# [6] = biological target: Gal(b1-4)GlcNAc(b1-2)[Gal(b1-4)GlcNAc(b1-6)]Man(a1-6)[Gal(b1-4)GlcNAc(b1-2)Man(a1-3)]Man(b1-4)GlcNAc(b1-4)GlcNAc
# Outline: as §1
# [7] = biological target: Gal(b1-4)GlcNAc(b1-2)[Gal(b1-4)GlcNAc(b1-6)]Man(a1-6)[Gal(b1-4)GlcNAc(b1-2)Man(a1-3)]Man(b1-4)GlcNAc(b1-4)[Fuc(a1-6)]GlcNAc
# Outline: as §1
# [8] = biological target: Gal(b1-4)GlcNAc(b1-2)[Gal(b1-4)GlcNAc(b1-6)]Man(a1-6)[GlcNAc(b1-4)][Gal(b1-4)GlcNAc(b1-2)Man(a1-3)]Man(b1-4)GlcNAc(b1-4)GlcNAc
# Outline: as §1
# [9] = biological target: Gal(b1-4)GlcNAc(b1-2)[Gal(b1-4)GlcNAc(b1-6)]Man(a1-6)[GlcNAc(b1-4)][Gal(b1-4)GlcNAc(b1-2)[Gal(b1-4)GlcNAc(b1-4)]Man(a1-3)]Man(b1-4)GlcNAc(b1-4)[Fuc(a1-6)]GlcNAc
# Outline: as §1
# [10] = biological target: Gal(b1-4)GlcNAc(b1-3)Gal(b1-3)GalNAc
# Outline: as §1
# [11] = biological target: Gal(b1-4)GlcNAc(b1-3)Gal(b1-3)GlcNAc
# Outline: as §1
# [12] = biological target: Gal(b1-4)GlcNAc(b1-3)Gal(b1-4)Glc
# Outline: as §1
# [13] = biological target: Gal(b1-4)GlcNAc(b1-3)Gal(b1-4)GlcNAc
# Outline: as §1
# [14] = biological target: Gal(b1-4)GlcNAc(b1-3)Gal(b1-4)GlcNAc(b1-2)Man(a1-3)[Gal(b1-4)GlcNAc(b1-3)Gal(b1-4)GlcNAc(b1-2)Man(a1-6)]Man(b1-4)GlcNAc(b1-4)GlcNAc
# Outline: as §1
# [15] = biological target: Gal(b1-4)GlcNAc(b1-3)Gal(b1-4)GlcNAc(b1-2)Man(a1-3)[Gal(b1-4)GlcNAc(b1-3)Gal(b1-4)GlcNAc(b1-2)Man(a1-6)]Man(b1-4)GlcNAc(b1-4)[Fuc(a1-6)]GlcNAc
# Outline: as §1
# [16] = biological target: Gal(b1-4)GlcNAc(b1-3)Gal(b1-4)GlcNAc(b1-2)[Gal(b1-4)GlcNAc(b1-3)Gal(b1-4)GlcNAc(b1-6)]Man(a1-6)[Gal(b1-4)GlcNAc(b1-3)Gal(b1-4)GlcNAc(b1-2)Man(a1-3)]Man(b1-4)GlcNAc(b1-4)GlcNAc
# Outline: as §1
# [17] = biological target: Gal(b1-4)GlcNAc(b1-3)Gal(b1-4)GlcNAc(b1-2)[Gal(b1-4)GlcNAc(b1-3)Gal(b1-4)GlcNAc(b1-6)]Man(a1-6)[Gal(b1-4)GlcNAc(b1-3)Gal(b1-4)GlcNAc(b1-2)Man(a1-3)]Man(b1-4)GlcNAc(b1-4)[Fuc(a1-6)]GlcNAc
# Outline: as §1
# [18] = biological target: Gal(b1-4)GlcNAc(b1-3)Gal(b1-4)GlcNAc(b1-3)Gal(b1-4)GlcNAc
# Outline: as §1
# [19] = biological target: Gal(b1-4)GlcNAc(b1-3)Gal(b1-4)GlcNAc(b1-3)Gal(b1-4)GlcNAc(b1-2)Man(a1-3)[Gal(b1-4)GlcNAc(b1-3)Gal(b1-4)GlcNAc(b1-3)Gal(b1-4)GlcNAc(b1-2)Man(a1-6)]Man(b1-4)GlcNAc(b1-4)GlcNAc
# Outline: as §1
# [20] = biological target: Gal(b1-4)GlcNAc(b1-3)Gal(b1-4)GlcNAc(b1-3)Gal(b1-4)GlcNAc(b1-2)Man(a1-3)[Gal(b1-4)GlcNAc(b1-3)Gal(b1-4)GlcNAc(b1-3)Gal(b1-4)GlcNAc(b1-2)Man(a1-6)]Man(b1-4)GlcNAc(b1-4)[Fuc(a1-6)]GlcNAc
# Outline: as §1
# [21] = biological target: Gal(b1-4)GlcNAc(b1-3)Gal(b1-4)GlcNAc(b1-3)Gal(b1-4)GlcNAc(b1-2)[Gal(b1-4)GlcNAc(b1-3)Gal(b1-4)GlcNAc(b1-3)Gal(b1-4)GlcNAc(b1-6)]Man(a1-6)[Gal(b1-4)GlcNAc(b1-3)Gal(b1-4)GlcNAc(b1-3)Gal(b1-4)GlcNAc(b1-2)Man(a1-3)]Man(b1-4)GlcNAc(b1-4)[Fuc(a1-6)]GlcNAc
# Outline: as §1
# [22] = biological target: Gal(b1-4)GlcNAc(b1-3)Gal(b1-4)GlcNAc(b1-3)Gal(b1-4)GlcNAc(b1-3)Gal(b1-4)GlcNAc(b1-2)Man(a1-3)[Gal(b1-4)GlcNAc(b1-3)Gal(b1-4)GlcNAc(b1-3)Gal(b1-4)GlcNAc(b1-3)Gal(b1-4)GlcNAc(b1-2)Man(a1-6)]Man(b1-4)GlcNAc(b1-4)GlcNAc
# Outline: as §1
binder,measurement,setting,value
EULS2 M2 (Oryza sativa) (protein) MVYCRANPNYAMTARNGAVVLAPANPKDEYQHWIKDMRWSTSIKDEEGYPAFALVNKATGQAIKHSLGQSHPVRLVPYNPEVMDESVLWTESRDVGNGFRCIRMVNNIYLNFDAFHGDKYHGGVRDGTDIVLWKLCEGDSQRWKIQPYYILEQKLISEEDLNSAVDHHHHHH,glycan array binding signal (z-score),[1],1.71
same,glycan array binding signal (z-score),[2],-0.224
same,glycan array binding signal (z-score),[3],-0.536
same,glycan array binding signal (z-score),[4],-0.154
same,glycan array binding signal (z-score),[5],-0.935
same,glycan array binding signal (z-score),[6],0.359
same,glycan array binding signal (z-score),[7],-0.293
same,glycan array binding signal (z-score),[8],-0.212
same,glycan array binding signal (z-score),[9],-0.469
same,glycan array binding signal (z-score),[10],-0.435
same,glycan array binding signal (z-score),[11],-0.193
same,glycan array binding signal (z-score),[12],-0.445
same,glycan array binding signal (z-score),[13],0.298
same,glycan array binding signal (z-score),[14],0.295
same,glycan array binding signal (z-score),[15],-0.309
same,glycan array binding signal (z-score),[16],1.3
same,glycan array binding signal (z-score),[17],0.142
same,glycan array binding signal (z-score),[18],-0.22
same,glycan array binding signal (z-score),[19],-0.451
same,glycan array binding signal (z-score),[20],-0.152
same,glycan array binding signal (z-score),[21],-0.005
same,glycan array binding signal (z-score),[22],0.019
